From the supplement of paper PMC3334620
The full ranking holds about 33,000 sequences; the median of “E-score (-0.5 to 0.5)” is about -0.017, and the highest 2% start at about 0.3. The list shows a part of the results.

molecular target: T1, Sut1 (UniProt P53032); assay: PBM E-score (8-mer binding enrichment) (E-score (-0.5 to 0.5)); higher = stronger / more preferred TF binding; most listed sequences are background and not binding sites; settings: protein concentration: 200 nM; construct: GST-full length
T1 sequence: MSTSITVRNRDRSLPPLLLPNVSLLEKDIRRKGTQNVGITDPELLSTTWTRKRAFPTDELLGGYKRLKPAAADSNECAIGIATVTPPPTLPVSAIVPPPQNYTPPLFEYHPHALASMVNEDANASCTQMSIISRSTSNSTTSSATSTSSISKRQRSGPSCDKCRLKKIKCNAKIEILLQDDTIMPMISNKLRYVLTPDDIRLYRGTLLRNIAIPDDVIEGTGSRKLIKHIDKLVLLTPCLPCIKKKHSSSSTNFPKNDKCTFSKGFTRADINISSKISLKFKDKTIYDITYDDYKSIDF
Method in brief: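 Detection of bound protein used fluorescent anti-GST, with scans normalised by masliner. The proteins were GST-tagged yeast transcription factors applied at about 100-200 nM to universal all-10-mer Agilent arrays made double-stranded by primer extension. Each ungapped eight-base word, pooled with its reverse complement, was scored with an E-score from the Universal PBM Analysis Suite.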

| Sequence | PBM E-score |
| --- | --- |
| TCTTCCAA | 0.177 |
| TAGCCACA | -0.0649 |
| AACACCTT | 0.0209 |
| AAACATCG | -0.171 |
| CAGCATAA | 0.19 |
| CATAAAAA | 0.161 |
| CCTAAATC | 0.108 |
| GGATTCAA | -0.0371 |
| CGGTCCTA | -0.124 |
| TGGGGAAA | 0.0593 |
| ACATTGCT | 0.0613 |
| CTTGTTGA | 0.00705 |
| AATTCTAA | 0.263 |
| GCGTTCCA | -0.215 |
| ATTTGCAG | 0.0722 |
| CCGCCCAA | -0.272 |
| AGGCGAAG | -0.04 |
| CAGACGCC | -0.119 |
| GTACGTCA | -0.0804 |
| AGCGTGAT | 0.0704 |
| GAGTTCTA | 0.135 |
| ATGATTCG | 0.0864 |
| CTACCTTA | 0.0292 |
| TACAGGAA | 0.128 |
| CCTTTCAC | -0.0877 |

| Sequence | PBM E-score |
| --- | --- |
| ATTGGCCG | -0.182 |
| CCTTGGCC | -0.293 |
| CAGAGGAG | -0.127 |
| CAACGCTC | -0.146 |
| GCGTTTCC | 0.0751 |
| AGTCGTAG | -0.00315 |
| GCATATTA | 0.11 |
| AGTACTTC | 0.137 |
| GCCCTGTA | -0.0292 |
| GTTTTCTA | 0.212 |
| ATAATCCG | 0.19 |
| GCAAAAAA | 0.0743 |
| ATTCCGGA | 0.42 |
| GAAAAAGA | 0.188 |
| GCGTTACA | -0.113 |
| GCAGCAGA | -0.175 |
| ATCTGTGG | -0.162 |
| GCGCCACC | -0.338 |
| GCGCGGGA | -0.22 |
| ATTTCATC | 0.138 |
| TATAATGA | 0.197 |
| CAGGAATC | -0.0729 |
| CGTATCCC | -0.242 |
| CGCACCAG | -0.205 |
| ATTAAGTG | 0.161 |

| Sequence | PBM E-score |
| --- | --- |
| GGTTCAAA | 0.124 |
| AGAACCAG | 0.0981 |
| GCGACCAC | -0.141 |
| AGAACCGA | 0.15 |
| CACATCTA | 0.128 |
| GTACCCAA | -0.162 |
| CTGCCCTC | -0.294 |
| CAGAACCC | -0.152 |
| AGTATACC | 0.118 |
| GACTAGTC | 0.0564 |
| AGACCGGC | -0.228 |
| AATGTCCC | -0.149 |
| ATCCGTGG | -0.0567 |
| ATACATTA | 0.234 |
| AGGCGACA | -0.182 |
| GATATGGA | 0.0661 |
| AGGTTCGG | 0.203 |
| GCATTTCA | 0.169 |
| AATCCGAA | 0.159 |
| CAGGGAAA | -0.0645 |
| AAGCTGGC | -0.195 |
| CTCGCTGA | -0.0752 |
| GCGTAAAC | 0.0266 |
| GAACCGTA | -0.234 |
| CCGCAGCG | -0.0642 |

| Sequence | PBM E-score |
| --- | --- |
| ATAAAACG | 0.295 |
| ACTTTGGC | -0.104 |
| ACTATCGA | -0.0789 |
| AGGGGTGA | -0.258 |
| CAAACGGG | 0.0265 |
| ACTACTGC | -0.059 |
| CCTCACAC | -0.112 |
| GCATGAGA | -0.227 |
| ACATTGAC | -0.025 |
| CCAACTCA | -0.0222 |
| GTTCCTAA | 0.0563 |
| CGAGCTCC | 0.0848 |
| GGCACAAC | -0.196 |
| CAAAGGTA | 0.0312 |
| TGTTCCAA | -0.0288 |
| GCCTAGAA | 0.0225 |
| CAATAATG | 0.0884 |
| GAAGACAA | 0.161 |
| TGAAGAAA | 0.185 |
| TCCTATAA | 0.161 |
| CCACATCC | -0.112 |
| CAGACTGG | -0.218 |
| CTATCCGA | 0.134 |
| ACATGTTG | 0.167 |
| GCGAGGGA | -0.226 |

| Sequence | PBM E-score |
| --- | --- |
| ACATTTCC | -0.00897 |
| CCAAATCC | 0.0309 |
| GATTCAGC | -0.0174 |
| GCCACGCC | -0.229 |
| ATAGCGTC | -0.0799 |
| CTACAGGC | -0.186 |
| CACTTCGA | -0.0675 |
| CAAAAATA | 0.281 |
| GGTTGTAC | 0.0573 |
| GTCGAAAC | -0.133 |
| ATGAACGC | 0.034 |
| ACTGGCTC | -0.158 |
| AATCAACG | 0.123 |
| TATGGACA | 0.0733 |
| CCATGAAC | 0.0148 |
| AGAACGGC | 0.0452 |
| ACGTTCGC | -0.15 |
| ATGTTAGC | 0.0602 |
| AGTTGCAC | -0.117 |
| TAGTTAGA | 0.169 |
| ACTCAATC | 0.0145 |
| CAGGTGCG | -0.123 |
| AGGTCCCC | -0.0987 |
| AGTCGTGC | -0.22 |
| CGTAATAG | 0.125 |

| Sequence | PBM E-score |
| --- | --- |
| TAGGTCAA | 0.012 |
| ATAGTCTA | 0.0924 |
| TCCGTCCA | 0.316 |
| CCCCCATC | -0.261 |
| CCTAATTA | 0.039 |
| AATCCGGC | -0.0834 |
| GTCCTTAA | -0.00985 |
| CTGCATCC | -0.0902 |
| ACAAACAA | 0.154 |
| ATATATTC | 0.282 |
| CCACCTGC | -0.213 |
| CAGTCATC | -0.109 |
| CGTACCGA | 0.0233 |
| CCTTTCTC | -0.0288 |
| AGCATTAT | 0.231 |
| GCGGGTAA | -0.291 |
| CATAGAGG | -0.22 |
| GGCCGTAC | -0.0509 |
| GGGTATTA | -0.0222 |
| ACGAGGTC | -0.0839 |
| ACCCGAAA | 0.0144 |
| ATATGTGC | -0.0399 |
| AATTAGGC | 0.155 |
| CGTGAACA | -0.0744 |
| CTCATTTC | -0.0108 |

| Sequence | PBM E-score |
| --- | --- |
| ACTGGTAC | -0.0817 |
| ATTTGCCC | 0.0253 |
| ATACCGAG | -0.0151 |
| CGTCATGA | -0.117 |
| AAATAAGT | 0.109 |
| ATAGCAGC | -0.0277 |
| ATACATAC | 0.0668 |
| ACCCTAGC | -0.127 |
| CCCTCCTC | -0.301 |
| ACCACTCG | 0.0555 |
| GTAGTGGA | 0.0571 |
| AGTCTTTG | -0.123 |
| CTTTGACC | -0.0243 |
| TCTTTCAA | 0.0726 |
| GGCCTTGA | -0.0528 |
| CGGATTCA | 0.0536 |
| GCATCGGA | 0.348 |
| AATCTCTC | 0.0289 |
| ACGTACCA | -0.0482 |
| TAACAGCA | 0.0633 |
| ACGGTTAG | -0.225 |
| GCTGAGGA | -0.218 |
